From article PMC12136788 come the findings set out here.

Sequences and labels used below:
T1: UNK ZnF1-6 (called full-length) (human, UniProt Q9C0B0 30-357)
T1 sequence: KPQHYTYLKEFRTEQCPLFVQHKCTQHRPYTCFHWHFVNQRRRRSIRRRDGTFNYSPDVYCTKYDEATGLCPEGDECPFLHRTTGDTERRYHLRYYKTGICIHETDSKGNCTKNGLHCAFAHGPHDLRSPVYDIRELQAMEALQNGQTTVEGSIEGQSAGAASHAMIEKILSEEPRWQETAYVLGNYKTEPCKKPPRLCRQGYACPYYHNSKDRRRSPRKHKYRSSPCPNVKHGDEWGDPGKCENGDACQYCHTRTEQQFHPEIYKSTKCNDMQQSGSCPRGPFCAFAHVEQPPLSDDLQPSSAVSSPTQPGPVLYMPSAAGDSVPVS

B1: chr7:88202242:88202358:+|3pUTR|ENSG00000008277|unk|total|mutant (ssRNA)
RNA: GGGAGUUCUACAGUCCGACGAUCUCAGGACCGAUAAGCAUGUACUCCUUUUUUAACUUGCUGGAAGACUUGCCCCUCCAAACCCGCACCCCCAAAAGACAACUUCUUUCAGAAACGGGGUGUUUUACCUAAACACCGCCGCUUCAACAGAGGAUUGAGCAUCA
B2: chr12:42456824:42456925:-|3pUTR|ENSG00000139174|unk|FALSE|unique (ssRNA)
RNA: GGGAGUUCUACAGUCCGACGAUCAUGAGCCACUGCGUCUGGCAAUAAUGUAACUUUGAAGCUUAAAAAUUAAUCCCAGUUUGUAGCAAUAACAGAAGACUAUCUACAACGGAAGAAAGAAGCAACUGCCUUACAGUUCUGUAACAACAGAGGAUUGAGCAUCA
B3: chr9:122916526:122916627:-|3pUTR|ENSG00000171448|unk|FALSE|unique (ssRNA)
RNA: GGGAGUUCUACAGUCCGACGAUCAUGCUUCCUAGCAUUGUGAUUUUUACAUGAUCCAGCCAAAGAGUACCAAUUCUAUGCAAUAGUGAGACUCUACCCUGUCAACCAAACAGCAUUUUUUGGUAUUUUCUGUCAACAUCAUUUCAACAGAGGAUUGAGCAUCA
B4: chr21:14371318:14371404:-|3pUTR|ENSG00000155304|msi1_unk|FALSE|overlapping (ssRNA)
RNA: GGGAGUUCUACAGUCCGACGAUCUAUGAAUAACAAUCUGAAGUCUUUUCAUAAAAAAAAUUAAUAAACUUUAGUUGUACAUUUAGCCAGUGUUAUUUGAAGUAUGUAACUUUUAAAAUAUUAAGUGUCUUGUAUGAUUAGAAUCAACAGAGGAUUGAGCAUCA
B5: chr3:68976711:68977116:-|CDS|ENSG00000163378|control|control|control (ssRNA)
RNA: GGGAGUUCUACAGUCCGACGAUCCUUUUUAGGAAUACCAAAGUUUUCAACUUUUUCAGCUUUAGAAUUUGUAAAUAUUUUUGUAGAAUAUCAUAUGACUGUAAUUCCAGAGUGUUCCAACUUGUUUAUGAUAUAUUUGGGUAACAACAGAGGAUUGAGCAUCA
B6: chr17:29575287:29575470:-|CDS|ENSG00000108262|control|control|control (ssRNA)
RNA: GGGAGUUCUACAGUCCGACGAUCUCUAGAGCUGGGCAAAGAGGAAGACUUCCACCCAGAGCUGGAAAGCCUGGAUGGAGACCUAGAUCCUGGGCUUCCCAGCACAGAGGAUGUCAUCUUGAAGACAGAGCAGGUCACCAAGAACAACAGAGGAUUGAGCAUCA
B7: chr8:80500255:80500365:+|CDS|ENSG00000205189|unk|FALSE|unique (ssRNA)
RNA: GGGAGUUCUACAGUCCGACGAUCGAAAAACCAAACUACAAAAAGAUUUAUUUAUAAUAUUCCACCUAAUAAUGAAACGAAUUUAGAAGAUUGCUCAGUAAUGCAGCCACCUGUUGCCUAUCCAGAAGAAAAUACACUACUCAUCAACAGAGGAUUGAGCAUCA
B8: chr7:123541454:123541562:-|3pUTR|ENSG00000128609|unk|total|mutant (ssRNA)
RNA: GGGAGUUCUACAGUCCGACGAUCUCCACCGUGUCAUUUUAUUUCCGUCAUUAUUGAAUUAUACCAUUUACUCUGUUUUCUUACCGUCUUAAUUUUAUUAUAUUUUGUUGUUACUGUAUUAUAUUUGAAAACCUUCAAAUCCGACAACAGAGGAUUGAGCAUCA
B9: chr4:56502255:56502306:+|3pUTR|ENSG00000174780|msi1_unk|FALSE|overlapping (ssRNA)
RNA: GGGAGUUCUACAGUCCGACGAUCAUUUCAGCUGGAGUCUGAAGAUACUUGUUUCUGUUCAAGUCCCACUUUAAAUUAUGUCUUAGGAGACUGAAAGUGGAAUCUUCUGAGCAUUCCUAAAUAUCUGCUUAGAAAUAUCAUGUGCAACAGAGGAUUGAGCAUCA
B10: chr5:75599425:75599511:+|3pUTR|ENSG00000122008|msi1_unk|FALSE|overlapping (ssRNA)
RNA: GGGAGUUCUACAGUCCGACGAUCGAAUAGCUUAAUUAAGAACUCACAGACUUUGACAAAGUGGUAACUAGACUUUUAAUUACUAGAUUCUUCAAAUUAGGCUUAAUGCCUGCUAGCAUGCCAAUCCAAUCCCAUGACUGAUGUCAACAGAGGAUUGAGCAUCA
B11: chr1:42176760:42176861:-|3pUTR|ENSG00000198815|msi1|FALSE|bound_elsewhere (ssRNA)
RNA: GGGAGUUCUACAGUCCGACGAUCGUCGCUCAGAUGUCCUUUGAAGUGGGAGGGAAUCAAUCCGGGGAUAAUUUCAAAUGGAAUAGAGUAUUUUGAUAUUGUUCAUUCAGAGGGUGAUGUGUACAUAUCUAUAUUGUAUAUAUGCAACAGAGGAUUGAGCAUCA
B12: chr1:193029531:193029688:-|CDS|ENSG00000116750|unk|FALSE|unique (ssRNA)
RNA: GGGAGUUCUACAGUCCGACGAUCUUGAUAUCUUCACUUUUAUAUUUUAUAGGUAAUUAAUAAUGCUUGUGCUACUCAAGCCAUAGUGAGUGUGUUACUGAACUGUACCCACCAGGAUGUCCAUUUAGGCGAGACAUUAUCAGACAACAGAGGAUUGAGCAUCA
B13: chr19:39385628:39385990:-|three_prime_utr|ENSG00000006712|control|control|control (ssRNA)
RNA: GGGAGUUCUACAGUCCGACGAUCGUCCCAGGGCAUUCAGGGCUGGUUCAGACACCAUUAUUGUGAGCAGCAAAGCACUUUUCUAGUGGUCUGUUUGUGAGCCUUUCACUUGUUUGUUCCCCACCCCCAAACCUUUGCUGUUAACAACAGAGGAUUGAGCAUCA
B14: chr5:82277714:82277885:-|CDS|ENSG00000186468|unk|total|mutant (ssRNA)
RNA: GGGAGUUCUACAGUCCGACGAUCAACUAAAAUAUUUAAUUUUCCGGCAAGUGUCGUGGACUUCGUACUGCCCGGAAGCUCCGCCGUCACCGACGAGACCAGAAGUGGCAUGAUAAACAGUAUAAGAAAGCUCAUUUGGGCACACAACAGAGGAUUGAGCAUCA
B15: chr1:28742582:28742694:+|CDS|ENSG00000198492|unk|total|mutant (ssRNA)
RNA: GGGAGUUCUACAGUCCGACGAUCAGCAACGGAGAGCCCCACUUCCUACCAGAUGCAAUGUUUGGGCAACCAGGAGCCCCCGGCCGCACUCCAUUUCUUGGUCAGCAUGGUUUUAAUUUCUUUCCCAGUGGGAUUGACUUCUCACAACAGAGGAUUGAGCAUCA
B16: chr3:52707940:52708050:+|3pUTR|ENSG00000114902|msi1_unk|FALSE|overlapping (ssRNA)
RNA: GGGAGUUCUACAGUCCGACGAUCUUUAGUUCUCUUUAUACUUCAUUUCUAGCCCAGUUGGGUUUUGAUUUAUAUAAGUAGUUUAGACCUUCUCUUCAUAAUCUUGCUCUGAGAUGGGGAACAGAACACACAAGUAUGAAGUUUCAACAGAGGAUUGAGCAUCA
B17: chr12:122341087:122341188:-|CDS|ENSG00000130779|unk|FALSE|bound_elsewhere (ssRNA)
RNA: GGGAGUUCUACAGUCCGACGAUCAGAAUUUGCUGAACUAAAAACACAAAUAGAGAAAAUGAGACUAGAUUACCAACACGAAAUAGAAAAUUUGCAGAAUCAACAAGACUCUGAACGGGCUGCCCAUGCUAAAGAGAUGGAAGCCAACAGAGGAUUGAGCAUCA
B18: chr19:35623844:35623945:+|3pUTR|ENSG00000249115|unk|FALSE|unique (ssRNA)
RNA: GGGAGUUCUACAGUCCGACGAUCUGUGUCAAGAGCAGCGGCGGUGACGCAGGUGUAGAGAUUUGUCAGAGCUCAUGUAGUUGUAGUCUUAAGGCCUGUGCAUUUCACUGCGUGGGUUACUCAAUUUAUAAAGCAAAGCCCUUACAACAGAGGAUUGAGCAUCA
B19: chr15:38485071:38485172:+|3pUTR|ENSG00000171262|unk|FALSE|unique (ssRNA)
RNA: GGGAGUUCUACAGUCCGACGAUCUUGCCUCACCUGUAUUGCUGUGGAUGUGUUUUGUGGGUUUUUCAUUCGAUUUUACAAAAUAGGGAAAGGCACUUCCAGUUGUAUUUAGUAGGCAGUUGUUGUGAAUCAUUUUUUUCUCUUCAACAGAGGAUUGAGCAUCA
B20: chr17:5346795:5346911:+|CDS|ENSG00000029725|unk|FALSE|unique (ssRNA)
RNA: GGGAGUUCUACAGUCCGACGAUCAGAACUGAAUCAUUAUCUGGAAGCUGAGAAAUCUUGUAGGACUGAUCUAGAGAUGUAUGUAGCUGUUUUGAAUACUCAGAAAUCUGUUCUACAGGAAGAUGCUGAGAAACUGCGGAAAGACAACAGAGGAUUGAGCAUCA
B21: chr3:168010103:168010202:-|3pUTR|ENSG00000173905|msi1_unk|total|mutant (ssRNA)
RNA: GGGAGUUCUACAGUCCGACGAUCGCUCAAACAUAAAUCUGCCUACUGAACUCCCGGAUAUUUAAUUACAAAAAUUAAGAACUCCGACUUUUUUAAAACUUUUGUAUCCGAAAUGCGCAUACAUUUAUAUGAAUAUAUUUUGAUCAACAGAGGAUUGAGCAUCA
B22: chr1:10178627:10178729:+|CDS|ENSG00000130939|unk|total|mutant (ssRNA)
RNA: GGGAGUUCUACAGUCCGACGAUCUAAGGAAUUGUUUGAAGAAGUUAUUUCAAAGAUGCGGAAGGCAGGGAUCAAAUCCACAACCGCAACCGAAAAAUUUAAGCUGCUCGCCGAGAAAGUGGAGGAGACCGUGGCCAAGAACGCCAACAGAGGAUUGAGCAUCA

Some of the results follow.

The target in the test is T1, UNK ZnF1-6 (called full-length). Briefly: nsRBNS (natural sequence RNA bind-n-seq); RBNS binding buffer (assumed for nsRBNS): 25 mM Tris pH 7.5, 150 mM KCl, 3 mM MgCl2, 0.01% Triton X-100, 500 ug/ml BSA, 20 U/ml SUPERase-In, 4 C; UNK is unkempt and MSI1 is Musashi-1; names of the RNAs are library labels; protein concentration not given here; high values mean tight binding.
With B1, the binding signal was 0.606 enrichment R.
The molecule B2 displayed a binding signal of 0.289 enrichment R.
On to B3, for which the binding signal was 0.419 enrichment R.
B4: the binding signal came to 1.48 enrichment R.
The result for B5 reads 9.89 enrichment R; that for B6, 0.606 enrichment R; that for B7, 9.28 enrichment R.
The result for B8 reads 17 enrichment R; that for B9, 0.869 enrichment R; that for B10, 38.5 enrichment R.
The result for B11 reads 1.26 enrichment R.
B12: the binding signal came out at 7.09 enrichment R.
As to B13, the binding signal was 0.94 enrichment R.
Take B14: the binding signal worked out at 0.699 enrichment R.
In the case of B15, the binding signal worked out at 0.667 enrichment R.
The result for B16 reads 3.19 enrichment R.
The result for B17 reads 8.87 enrichment R.
As for B18, the binding signal is 3.16 enrichment R.
With B19, the binding signal is 0.823 enrichment R.
The result for B20 reads 0.722 enrichment R; that for B21, 3.17 enrichment R; that for B22, 0.628 enrichment R.
